# Data from patent US10214765B2, “Cell-permeable probes for identification and imaging of sialidases” (Academina Sinica, priority 2012, dated 2019).
# Key:
# Experiment in all cases: biochemical
# [1] = molecular target: Neu3 (recombinant sialidase from human) (Homo sapiens, UniProt Q9UQ49)
# [2] = molecular target: nanC (recombinant sialidase of S. pneumoniae) (Streptococcus pneumoniae, UniProt A0A0H2UQE4)
# [3] = molecular target: Neu1 (recombinant sialidase from human) (Homo sapiens, UniProt Q99519)
# [4] = molecular target: Neu4 (recombinant sialidase from human) (Homo sapiens, UniProt Q8WWR8)
# [5] = molecular target: nanA (recombinant sialidase of S. pneumoniae) (Streptococcus pneumoniae, UniProt P62575)
# [6] = molecular target: nanB (recombinant sialidase of S. pneumoniae) (Streptococcus pneumoniae serotype 4, UniProt Q54727)
# UniProt Q9UQ49, sequence (Q9UQ49 whole entry): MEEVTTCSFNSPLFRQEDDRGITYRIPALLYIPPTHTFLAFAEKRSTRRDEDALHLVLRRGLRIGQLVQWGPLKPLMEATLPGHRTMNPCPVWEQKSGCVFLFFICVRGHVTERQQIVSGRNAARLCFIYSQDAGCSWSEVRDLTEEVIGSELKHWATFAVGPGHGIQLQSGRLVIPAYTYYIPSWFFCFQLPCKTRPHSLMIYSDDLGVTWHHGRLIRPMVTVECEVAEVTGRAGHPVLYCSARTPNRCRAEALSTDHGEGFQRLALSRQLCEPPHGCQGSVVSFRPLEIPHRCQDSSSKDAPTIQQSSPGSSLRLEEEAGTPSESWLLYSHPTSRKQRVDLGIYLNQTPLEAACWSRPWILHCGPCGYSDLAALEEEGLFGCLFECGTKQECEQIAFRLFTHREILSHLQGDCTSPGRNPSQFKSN
SMILES,IC50 [1],"IC50 ([2]; nanC, MUNANA substrate)",IC50 [3],IC50 [4],IC50 [5],IC50 [6],IC50 [2]
"CC(=O)N[C@H]1[C@H]([C@H](O)[C@H](O)CO)OC(C(=O)O)=C[C@@H]1O [DANA, 2,3-didehydro-2-deoxy-N-acetylneuraminic acid]",2.4 ± 0.6 µM,> 100 µM,,,,,
"C#CCCC(=O)NC1C(O)C(F)C(F)(C(=O)O)OC1[C@H](O)[C@H](O)CO (stereo partly drawn) [DFSA-5-yne, 5-(Pent-4-ynamido)-2,3,5-trideoxy-3-fluoro-D-erythro-β-L-manno-non-2-ulopyranosylonic fluoride]",5.3 ± 3.2 µM,,10.4 ± 2.3 µM,59.8 ± 1.3 µM,0.3 ± 0.1 µM,82 ± 22 µM,42.8 ± 17.5 µM
CCOC(=O)C1=C[C@@H](OC(CC)CC)[C@H](NC(C)=O)[C@@H](N)C1 [Oseltamivir],> 100 µM,,> 100 µM,> 100 µM,3.8 ± 2.6 µM,14.2 ± 6.2 µM,> 100 µM
CC(=O)N[C@H]1[C@H]([C@H](O)[C@H](O)CO)OC(C(=O)O)=C[C@@H]1N=C(N)N [Zanamivir],,,> 100 µM,,> 100 µM,> 100 µM,> 100 µM

# Read-outs that look alike come from different tables or passages of the source.
